{"source": "PubChem BioAssay (Tox21)", "key": {"[1]": {"target": "Estrogen receptor beta (Homo sapiens) (UniProt Q92731)", "sequence (Q92731 whole entry, looked up)": "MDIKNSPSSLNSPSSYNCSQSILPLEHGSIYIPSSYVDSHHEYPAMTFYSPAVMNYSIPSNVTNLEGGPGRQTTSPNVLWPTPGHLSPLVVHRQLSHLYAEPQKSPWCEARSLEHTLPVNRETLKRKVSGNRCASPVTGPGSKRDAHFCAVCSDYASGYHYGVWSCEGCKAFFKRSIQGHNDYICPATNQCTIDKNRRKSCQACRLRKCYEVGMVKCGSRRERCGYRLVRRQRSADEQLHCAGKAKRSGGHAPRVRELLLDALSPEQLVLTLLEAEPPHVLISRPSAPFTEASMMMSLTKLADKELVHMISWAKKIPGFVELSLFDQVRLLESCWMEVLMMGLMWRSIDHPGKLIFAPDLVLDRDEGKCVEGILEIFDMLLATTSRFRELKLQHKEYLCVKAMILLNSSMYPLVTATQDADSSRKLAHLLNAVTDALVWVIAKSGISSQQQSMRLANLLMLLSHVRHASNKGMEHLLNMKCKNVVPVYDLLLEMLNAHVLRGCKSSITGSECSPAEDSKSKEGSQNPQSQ", "experiment": "qHTS assay to identify small molecule antagonists of the estrogen receptor beta (ER-beta) signaling pathway (AID 1259378; active means well fitted inhibition curve with a large enough effect in the signal ratio in the repeat runs, not every such curve was filed as active; inconclusive means weak or mixed curves, or effect the other way; inactive means no such curve, though single readings can be large or run the other way; the % refers to the signal ratio; on activity, negative = inhibition: on the % scale 0 is the no-effect control and ±100 the full control effect)", "conditions": "ER-beta-UAS-bla HEK293T, beta-lactamase FRET ratio, 16 h; activity, negative = inhibition: at 92.4 µM (top of the series) unless noted", "outline": "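ER-beta-UAS-bla HEK293T (GripTite) cells in 2% charcoal-stripped FBS medium were preincubated 6 hr at 37C, dosed with compound, then stimulated with 1 nM E2 (final) for 16 hr; beta-lactamase reporter read by B/G FRET fluorescence after 2 hr substrate loading.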"}, "[2]": {"experiment": "qHTS assay to identify small molecule agonists of the estrogen receptor beta (ER-beta) signaling pathway - cell viability counter screen (AID 1259380; active means well fitted curve in the direction sought with a large enough effect in the repeat runs; inconclusive means weak or mixed curves; inactive means no such curve, though single readings can be large; an effect the other way counts as inactive or inconclusive; further: nearly all actives have a fitted effect of over 30% in size)", "outline": "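Compounds dissolved in DMSO were pin-transferred onto ER-beta-UAS-bla HEK293T cells that had settled 6 hr, and exposure ran 16 hr at 37C. Following the reporter read, CellTiter-Glo luminescence after 30 min at room temperature indicated cytotoxicity.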"}, "[3]": {"experiment": "qHTS assay to identify small molecule antagonists of the estrogen receptor beta (ER-beta) signaling pathway - cell viability counter screen (AID 1259382; active means well fitted curve in the direction sought with a large enough effect in the repeat runs; inconclusive means weak or mixed curves; inactive means no such curve, though single readings can be large; an effect the other way counts as inactive or inconclusive; further: nearly all actives have a fitted effect of over 55% in size)", "outline": "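CellTiter-Glo ATP luminescence measured after the LiveBLAzer read in the same wells; ER-beta-UAS-bla HEK293T cells, 16 hr compound treatment with 1nM 17-beta-estradiol agonist at 37C, 5% CO2.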"}, "[4]": {"target": "Progesterone receptor (Homo sapiens) (UniProt P06401)", "sequence (P06401 whole entry, looked up)": "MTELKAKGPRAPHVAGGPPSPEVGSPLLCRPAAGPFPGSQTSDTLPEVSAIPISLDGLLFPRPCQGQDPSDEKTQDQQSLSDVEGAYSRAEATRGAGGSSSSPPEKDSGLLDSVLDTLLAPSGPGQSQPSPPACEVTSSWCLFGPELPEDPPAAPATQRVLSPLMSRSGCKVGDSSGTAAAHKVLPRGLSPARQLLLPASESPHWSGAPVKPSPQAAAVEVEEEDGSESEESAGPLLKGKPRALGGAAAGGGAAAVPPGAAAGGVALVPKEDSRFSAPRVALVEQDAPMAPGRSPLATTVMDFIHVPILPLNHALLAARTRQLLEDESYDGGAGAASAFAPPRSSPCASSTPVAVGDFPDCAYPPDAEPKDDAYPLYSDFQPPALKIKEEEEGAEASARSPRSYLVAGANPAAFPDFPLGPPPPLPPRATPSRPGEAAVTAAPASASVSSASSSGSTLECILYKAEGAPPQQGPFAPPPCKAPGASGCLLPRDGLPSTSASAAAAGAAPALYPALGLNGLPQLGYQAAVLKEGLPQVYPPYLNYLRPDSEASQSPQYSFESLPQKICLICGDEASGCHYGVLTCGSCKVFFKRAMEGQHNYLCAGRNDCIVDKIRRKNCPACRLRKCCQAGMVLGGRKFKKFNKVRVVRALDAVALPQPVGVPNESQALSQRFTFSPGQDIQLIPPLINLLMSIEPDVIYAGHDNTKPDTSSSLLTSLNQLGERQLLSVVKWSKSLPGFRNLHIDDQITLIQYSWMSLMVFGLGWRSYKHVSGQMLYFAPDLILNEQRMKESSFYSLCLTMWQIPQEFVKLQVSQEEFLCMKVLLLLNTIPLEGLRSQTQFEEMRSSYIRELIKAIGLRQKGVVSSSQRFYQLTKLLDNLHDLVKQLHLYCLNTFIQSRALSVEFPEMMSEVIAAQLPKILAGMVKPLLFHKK", "experiment": "qHTS assay to identify small molecule agonists of the progesterone receptor (PR) signaling pathway (AID 1346784); further: nearly all actives have a fitted effect of over 30% in size; on activation: on the % scale 0 is the no-effect control and ±100 the full control effect", "conditions": "PR-UAS-bla HEK293T, beta-lactamase FRET ratio, 16 h; activation: at 92.4 µM (top of the series) unless noted", "outline": "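HEK 293T PR-UAS-bla reporter cells, 2% charcoal-stripped FBS; 6 hr settle at 37C/5% CO2, compound (DMSO) 16 hr, LiveBLAzer B/G FRET substrate 2 hr RT, fluorescence intensity read.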"}, "[5]": {"target": "Progesterone receptor (Homo sapiens) (UniProt P06401)", "experiment": "qHTS assay to identify small molecule antagonists of the progesterone receptor (PR) signaling pathway (AID 1346795; active means well fitted inhibition curve with a large enough effect in the signal ratio in the repeat runs, not every such curve was filed as active; inconclusive means weak or mixed curves; the % refers to the signal ratio)", "conditions": "PR-UAS-bla HEK293T, beta-lactamase FRET ratio, 16 h; activity change, negative = inhibition: at 92.4 µM (top of the series) unless noted", "outline": "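Beta-lactamase reporter, HEK293T PR-UAS-bla line; 2% charcoal-stripped FBS; 6 hr pre-incubation, 37C/5% CO2. Compound + R5020 1 nM final, 16 hr. LiveBLAzer B/G FRET substrate, 2 hr RT; fluorescence intensity read.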"}, "[6]": {"experiment": "qHTS assay to identify small molecule antagonists of the progesterone receptor (PR) signaling pathway - cell viability counter screen (AID 1346798; active means well fitted curve in the direction sought with a large enough effect in the repeat runs; inconclusive means weak or mixed curves; inactive means no such curve, though single readings can be large; an effect the other way counts as inactive or inconclusive; further: nearly all actives have a fitted effect of over 50% in size)", "outline": "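Luminescence readout (CellTiter-Glo, 30 min, RT) of viability in PR-UAS-bla HEK293T cells exposed to compound and R5020 agonist for 16 hr at 37C, 5% CO2; run in the same wells as the beta-lactamase reporter read.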"}, "[7]": {"experiment": "qHTS assay to identify small molecule agonists of the progesterone receptor (PR) signaling pathway - cell viability counter screen (AID 1346799); further: nearly all actives have a fitted effect of over 45% in size", "outline": "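HEK293T PR-UAS-bla, 3,000 cells/well, 2% charcoal-stripped FBS; 6 h settle, compound 16 h at 37C/5% CO2; LiveBLAzer 2 h RT, then CellTiter-Glo 30 min RT, luminescence read.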"}, "[8]": {"target": "Androgen receptor (Homo sapiens) (UniProt P10275)", "sequence (P10275 whole entry, looked up)": "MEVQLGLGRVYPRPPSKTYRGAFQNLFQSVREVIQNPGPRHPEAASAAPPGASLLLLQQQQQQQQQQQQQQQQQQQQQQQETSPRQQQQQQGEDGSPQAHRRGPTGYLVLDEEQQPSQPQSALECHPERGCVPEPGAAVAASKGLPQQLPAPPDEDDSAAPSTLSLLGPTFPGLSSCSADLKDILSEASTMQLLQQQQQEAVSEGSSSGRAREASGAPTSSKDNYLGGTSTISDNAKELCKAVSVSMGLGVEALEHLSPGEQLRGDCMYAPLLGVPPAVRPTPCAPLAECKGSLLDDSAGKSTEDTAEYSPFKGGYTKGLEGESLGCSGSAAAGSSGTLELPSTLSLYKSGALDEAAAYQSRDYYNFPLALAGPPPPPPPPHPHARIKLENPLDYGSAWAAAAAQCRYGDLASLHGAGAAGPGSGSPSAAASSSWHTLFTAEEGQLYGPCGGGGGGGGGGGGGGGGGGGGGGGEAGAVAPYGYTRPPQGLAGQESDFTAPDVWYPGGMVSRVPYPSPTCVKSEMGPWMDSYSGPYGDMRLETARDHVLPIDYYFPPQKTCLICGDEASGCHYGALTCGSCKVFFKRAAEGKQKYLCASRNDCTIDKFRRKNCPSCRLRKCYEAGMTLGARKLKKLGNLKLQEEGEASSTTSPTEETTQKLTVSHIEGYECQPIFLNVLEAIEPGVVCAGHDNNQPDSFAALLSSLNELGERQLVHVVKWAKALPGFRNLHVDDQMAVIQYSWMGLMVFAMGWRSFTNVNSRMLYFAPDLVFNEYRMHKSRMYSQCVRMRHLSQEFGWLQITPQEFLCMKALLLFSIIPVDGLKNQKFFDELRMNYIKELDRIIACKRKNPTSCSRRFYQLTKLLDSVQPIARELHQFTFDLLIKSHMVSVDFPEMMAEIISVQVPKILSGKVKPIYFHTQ", "experiment": "qHTS assay to identify small molecule agonists of the androgen receptor (AR) signaling pathway in the presence of an antagonist (AID 1259381); further: nearly all actives have a fitted effect of over 15% in size", "outline": "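Plated MDA-kb2 cells (3,000/well) were pre-incubated 5hr, given nilutamide (3.0uM final) or buffer, then dosed with compounds in DMSO at 15 concentrations. Luciferase activity was quantified by luminescence after 16hr at 37C.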"}, "[9]": {"target": "Thyrotropin receptor (Homo sapiens) (UniProt P16473)", "sequence (P16473 whole entry, looked up)": "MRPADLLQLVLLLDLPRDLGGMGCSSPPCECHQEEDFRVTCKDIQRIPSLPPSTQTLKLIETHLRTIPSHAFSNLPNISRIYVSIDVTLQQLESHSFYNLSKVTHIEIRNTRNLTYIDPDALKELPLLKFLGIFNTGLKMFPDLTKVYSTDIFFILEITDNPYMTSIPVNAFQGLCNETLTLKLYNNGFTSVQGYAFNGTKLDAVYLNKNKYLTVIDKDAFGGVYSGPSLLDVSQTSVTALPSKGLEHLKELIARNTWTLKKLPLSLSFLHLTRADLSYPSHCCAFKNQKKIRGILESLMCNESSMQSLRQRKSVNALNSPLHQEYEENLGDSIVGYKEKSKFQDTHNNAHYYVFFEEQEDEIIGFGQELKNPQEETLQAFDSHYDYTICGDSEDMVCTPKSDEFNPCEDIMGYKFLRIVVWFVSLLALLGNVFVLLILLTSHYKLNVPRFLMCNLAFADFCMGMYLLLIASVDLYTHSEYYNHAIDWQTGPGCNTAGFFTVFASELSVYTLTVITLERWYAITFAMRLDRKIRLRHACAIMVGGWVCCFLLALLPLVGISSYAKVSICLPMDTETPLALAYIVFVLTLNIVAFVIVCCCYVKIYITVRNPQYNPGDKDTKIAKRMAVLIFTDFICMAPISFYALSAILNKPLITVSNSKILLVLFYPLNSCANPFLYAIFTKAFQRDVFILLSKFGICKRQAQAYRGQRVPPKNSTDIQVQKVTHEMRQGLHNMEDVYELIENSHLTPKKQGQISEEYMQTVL", "experiment": "qHTS assay to identify small molecule antagonists of the thyroid stimulating hormone receptor (TSHR) signaling pathway (AID 1259385); further: nearly all actives have a fitted effect of over 20% in size", "conditions": "TSHR-HEK293 cAMP HTRF, TSH-stimulated antagonist mode; activity change, negative = inhibition: at 92.4 µM (top of the series) unless noted", "outline": "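TSHR-HEK293 cells were plated and held 18 h at 37C/5% CO2, then given compound plus Ro20-1724 and stimulated with TSH at 1.5 ng/mL final. After 30 min at room temperature, cAMP was detected with cAMP-d2/anti-cAMP-cryptate (1 h) by fluorescence.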"}}, "note": "“And” between values parts separate entries of the source, which are not always exact repeats. Identical values can stand only once. Inconclusive means that the source gave no clear call. Such entries were picked first, then a sample of the others. Where the call is inconclusive, the potency comes from a doubtful curve fit. The source made the active and inactive calls. Unless noted, the call rests on the fitted dose curve. Potency means the concentration at half of the fitted maximal effect; tags describe the fitted curve by direction and shape or compound fluorescence and quenching.", "data": [{"smiles": "Nc1nc(CC(=O)O)cs1", "values": [{"measurement": "Potency", "setting": "[1]", "value": "inconclusive: 17.3 µM [rising, partial curve]"}, {"measurement": "Potency", "setting": "[2]", "value": "inconclusive: 24.4 µM [cytotoxic, full curve]"}, {"measurement": "Potency", "setting": "[3]", "value": "inconclusive: 15.4 µM [cytotoxic, full curve]"}, {"measurement": "activation", "setting": "[4]", "value": "inconclusive: 22.1%"}, {"measurement": "Potency", "setting": "[5]", "value": "inconclusive: 30.7 µM [rising, single point]"}, {"measurement": "Potency", "setting": "[6]", "value": "inconclusive: 27.4 µM [cytotoxic, partial curve]"}, {"measurement": "Potency", "setting": "[7]", "value": "inconclusive: 77.2 µM [rising, single point]"}]}, {"smiles": "O=P(OC(CCl)CCl)(OC(CCl)CCl)OC(CCl)CCl", "values": [{"measurement": "Potency", "setting": "[1]", "value": "inconclusive: 68.2 µM [inhibitor, single point] and active: 54.5 µM"}, {"measurement": "Potency", "setting": "[2]", "value": "inconclusive: 68.6 µM [cytotoxic, single point]"}, {"measurement": "Potency", "setting": "[5]", "value": "active: 6.82 µM and active: 7.7 µM"}, {"measurement": "Potency", "setting": "[7]", "value": "inconclusive: 68.2 µM [rising, single point] and inconclusive: 77 µM [rising, single point]"}]}, {"smiles": "CC(=O)NO", "values": [{"measurement": "Potency", "setting": "[1]", "value": "inconclusive: 23.7 µM [activator]"}, {"measurement": "Potency", "setting": "[8]", "value": "inconclusive: 0.119 µM [rising, single point]"}, {"measurement": "Potency", "setting": "[4]", "value": "inconclusive: 11.9 µM [rising, single point]"}, {"measurement": "Potency", "setting": "[5]", "value": "inconclusive: 9.44 µM [rising, full curve, poor fit]"}, {"measurement": "Potency", "setting": "[6]", "value": "inconclusive: 16.8 µM [cytotoxic, partial curve, poor fit]"}]}, {"smiles": "Cn1ccc2cc3c(cc21)CCN3C(=O)Nc1cccnc1", "values": [{"measurement": "activity, negative = inhibition", "setting": "[1]", "value": "inconclusive: 7.75% [at 19 µM]"}, {"measurement": "Potency", "setting": "[2]", "value": "inconclusive: 9.2 µM [cytotoxic, partial curve]"}, {"measurement": "Potency", "setting": "[9]", "value": "inconclusive: 1.16 µM [falling, partial curve]"}]}]}
